Target: T1, Recombinant CD3epsilon/delta Fc fusion protein (Sino Biological) (UniProt P07766 23-126; P04234 22-105)
T1 construct: Bought reagent; also called recombinant CD3 fusion protein; CD3 antigen; not shown: Fc part of the bought fusion protein; not described
Test: SPR, BioRad ProteOn XPR36, 25 C, anti-Fc capture chip, Equilibrium Fit model, mean of three runs

B1: v6751, bispecific anti-CD3-CD19 antigen-binding construct (murine HD37 Fab / murine OKT3 scFv, heterodimeric Fc) (bispecific antibody, human IgG1, kappa)
heavy: QVQLQQSGAELVRPGSSVKISCKASGYAFSSYWMNWVKQRPGQGLEWIGQIWPGDGDTNYNGKFKGKATLTADESSSTAYMQLSSLASEDSAVYFCARRETTTVGRYYYAMDYWGQGTTVTVSSASTKGPSVFPLAPSSKSTSGGTAALGCLVKDYFPEPVTVSWNSGALTSGVHTFPAVLQSSGLYSLSSVVTVPSSSLGTQTYICNVNHKPSNTKVDKK[human IgG1 Fc with changes omitted here]
chain: QIVLTQSPAIMSASPGEKVTMTCSASSSVSYMNWYQQKSGTSPKRWIYDTSKLASGVPAHFRGSGSGTSYSLTISGMEAEDAATYYCQQWSSNPFTFGSGTKLEINGGGGSGGGGSGGGGSQVQLQQSGAELARPGASVKMS[about 80 residues omitted here][about 250 residues omitted here]
light: DIQLTQSPASLAVSLGQRATISCKASQSVDYDGDSYLNWYQQIPGQPPKLLIYDASNLVSGIPPRFSGSGSGTDFTLNIHPVEKVDAATYHCQQSTEDPWTFGGGTKLEIKRTVAAPSVFIFPPSDEQLKSGTASVVCLLNNFYPREAKVQWKVDNALQSGNSQESVTEQDSKDSTYSLSSTLTLSKADYEKHKVYACEVTHQGLSSPVTKSFNRGEC
notes: also called parental murine construct v6751
B1 was tested. Which Kd did it give?
The Kd was 141 nM.
